Results taken from the supplement of paper PMC3334620.
Over roughly 33,000 sequences, “E-score (-0.5 to 0.5)” has its median near -0.036; the highest 2% begin near 0.37. The list shows a part of the results.

Target: T1, Yer064c (UniProt P40041)
T1 sequence: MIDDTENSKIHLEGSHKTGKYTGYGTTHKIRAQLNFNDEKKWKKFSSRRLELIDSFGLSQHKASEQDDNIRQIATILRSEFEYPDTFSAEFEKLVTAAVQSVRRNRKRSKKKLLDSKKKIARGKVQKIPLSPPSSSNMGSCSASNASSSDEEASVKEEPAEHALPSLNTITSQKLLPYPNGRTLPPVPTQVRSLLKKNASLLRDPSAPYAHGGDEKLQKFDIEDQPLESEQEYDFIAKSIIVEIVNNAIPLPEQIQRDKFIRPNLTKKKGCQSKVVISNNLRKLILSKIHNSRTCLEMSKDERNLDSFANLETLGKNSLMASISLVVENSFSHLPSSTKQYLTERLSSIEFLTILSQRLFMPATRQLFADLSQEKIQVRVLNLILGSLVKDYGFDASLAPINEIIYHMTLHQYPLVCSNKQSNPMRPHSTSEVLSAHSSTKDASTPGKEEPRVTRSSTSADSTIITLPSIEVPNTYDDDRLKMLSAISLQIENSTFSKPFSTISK
Test: PBM E-score (8-mer binding enrichment) (E-score (-0.5 to 0.5)); higher = stronger / more preferred TF binding; most listed sequences are background and not binding sites
Conditions: protein concentration: 200 nM; construct: GST-full length
Description: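 Universal 'all 10-mer' protein binding microarrays (Agilent AMADID 015681) probed with GST-tagged S. cerevisiae TFs (full-length or DBD) made by in vitro transcription/translation (PURExpress), about 100-200 nM. Bound TF was detected with fluorescent anti-GST. Each ungapped 8-mer (which stands for itself and its reverse complement) is scored by the PBM enrichment score (E-score), a modified Wilcoxon-Mann-Whitney statistic from -0.5 to +0.5, computed with the Universal PBM Analysis Suite. Scale: above 0.35 generally sequence-specific binding.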

Sequence | PBM E-score
AGGCTCCG | -0.185
AAACGGGG | -0.128
ATACACAA | 0.0358
GACCAGAC | -0.143
ACGCGGAG | -0.145
CGGTCCCC | -0.287
AGGAGATA | -0.194
GGGCCGTA | -0.231
CGTCTTAG | -0.188
ATAGCAGG | -0.169
CGCTGTAG | -0.0731
AACTCAGG | 0.0445
CGCCTTGC | -0.0684
AGGATTTG | -0.0258
TGACGTAA | 0.00826
AAATTAGG | -0.0277
AGGACTAC | 0.341
ACCCAGAA | 0.163
AATAATTC | 0.0244
ATCCCTGC | -0.114
ATAATGAA | 0.185
GCCTCTGA | -0.0264
AAGAGTCC | 0.303
ATTTAGGA | 0.151
CAGGCACC | -0.0975

Sequence | PBM E-score
CTCGTCAG | 0.00393
ACATGCCA | -0.0159
CCGCTCTC | -0.159
CCGTAACG | -0.238
TCAGGAGA | 0.159
AACGTGTC | -0.16
GGAGAGCC | -0.195
ACGGTATA | -0.255
GAGGGAAC | -0.319
GAGGTAAA | 0.122
GCTTACAC | -0.0577
ACGTTGGG | 0.00438
ATCCTGCC | -0.159
CCGCTCAC | -0.1
GGAACAAC | 0.0564
CCGTCTGA | -0.0271
CCGTTTGA | 0.0399
ACTTAAGA | 0.204
ACAATAGC | 0.0973
GTGCGGCA | -0.143
AGGATGTC | 0.00214
GAAACATA | 0.0114
CTGGCGGA | 0.0452
CGATGACA | -0.0688
CTAGCCCA | -0.0863

Sequence | PBM E-score
ATCAGCTA | 0.0333
AGTTCAGA | 0.0534
CGCTCACA | -0.0179
AGGACCTG | -0.224
ATAGACGA | 0.0716
CCATGAAG | 0.0179
GCGCACTA | -0.326
GCGCGCCC | -0.0703
ACTATTGC | 0.151
CTACAACA | 0.0623
AAGTGAAA | -0.00667
CTTAATCA | 0.45
ACGACATA | -0.164
AACGTTGC | -0.124
AGCAGCGA | -0.0693
GCAAACCC | -0.249
AAACGGGT | -0.154
GTAAGGGA | -0.0548
CACCGCCC | -0.0824
CTTGCTGA | 0.0233
CCTATAGG | -0.338
ACACGGAT | 0.075
CGAGTGTA | -0.019
CGCGAGTC | 0.405
CTAGGACA | 0.0648

Sequence | PBM E-score
AAGCTTCA | -0.204
ACAATACT | 0.178
TGCATAAA | 0.0405
AAGACTCT | 0.425
AGGACCTC | -0.293
GGTTGTCA | -0.0479
ACGGGGTA | -0.003
AGTTCCGA | 0.0577
ACTTCGTC | 0.0588
GCATTTGA | 0.159
CCGACTTC | -0.0761
GTTTCCCA | -0.00934
GATGCGAC | 0.00152
CACGAAGC | -0.0806
ACTTGCCT | -0.0551
AAAATTCC | -0.197
CGCGGCAC | -0.325
GAACAGCA | -0.175
ACAGTCGT | 0.198
GTGGCGAA | -0.171
GAAACGTA | -0.0136
CCGAGGAC | -0.0294
GCTCAACA | -0.0159
AAGCGACT | 0.369
ATGACAAC | -0.0635

Sequence | PBM E-score
TACGGTGA | 0.194
AGCGGGCC | -0.167
CGCCCTCC | -0.364
CTCTGCCC | -0.138
AAGGACTA | 0.375
GCCAGGGC | -0.19
CGTTCACA | 0.0136
CTCAGCAG | 0.103
AAGGTTGA | 0.242
CCGAACAA | -0.119
CACCAGGA | 0.00778
AGGGGGAA | -0.34
AATCTAGT | 0.215
ACTTCTTC | 0.0781
AACTACAG | -0.166
GAGCAAGC | -0.0798
TCAGAAAA | 0.0134
AAGGTCAC | 0.0502
CCTGCTGA | 0.0146
CCCCTCTA | -0.246
CGTATTAC | -0.06
GAGTTTAA | 0.148
GACCCTAA | -0.141
CGCTTGAC | 0.0418
CTCTGAAC | 0.0386

Sequence | PBM E-score
CGGATGAC | 0.141
ATTCAGGG | 0.0298
CGCATTGA | -0.102
GGTGAAGA | -0.0031
ACTAGCGG | -0.0722
ATCGGACG | -0.34
CAAGGAAA | -0.174
TAGAGTCA | 0.469
GTTTTCCA | -0.0642
ATGCTCCC | -0.176
CGCGACTA | 0.397
TATGTTAA | 0.0376
GGCCCTGA | -0.0566
GACGAGAC | -0.0639
CGCTCTAA | -0.0444
AAAAGACT | 0.348
AATGTCAT | -0.0407
ATACAGCA | -0.168
TACTTGGA | 0.102
CAGCCGGG | -0.101
GTGACGGA | -0.0635
CGCAGGAC | -0.12
CATATATG | -0.0829
TAGGCTGA | 0.162
TAGGGCCA | -0.307

Sequence | PBM E-score
AAAAGTTG | -0.0918
ACCGTCAG | -0.116
CAAACTCA | 0.131
CGCCAATC | -0.0392
CCCACTCG | -0.137
ACCTTTCC | -0.182
ATTAGTTC | 0.019
CGAGGGGC | -0.383
CTCCAGTC | 0.0119
AGTGAGGG | -0.0706
CGGAAACG | -0.19
ACCTTTTG | -0.181
ACGGCATA | -0.0587
ATCCACTC | -0.0532
TCGAGCCA | -0.00283
AACAGTTG | -0.07
ACCCGCCT | -0.07
ATTAGCGC | 0.0351
AAGGACTC | 0.39
AAACGTAG | -0.143
AAGGAGAG | -0.0501
GCAATTAA | 0.126
